Laboratory results published in the supplement of paper PMC12632987.
Over roughly 1,800 sequences, “median log2 fold change of GCK-ALFA target abundance (FLAG IP / Myc IP barcode read proportion)” has its median near 0.14; the lowest 2% begin near -0.84. This is one part of the list.

T1: TRAF2, Q12933
T1 chain: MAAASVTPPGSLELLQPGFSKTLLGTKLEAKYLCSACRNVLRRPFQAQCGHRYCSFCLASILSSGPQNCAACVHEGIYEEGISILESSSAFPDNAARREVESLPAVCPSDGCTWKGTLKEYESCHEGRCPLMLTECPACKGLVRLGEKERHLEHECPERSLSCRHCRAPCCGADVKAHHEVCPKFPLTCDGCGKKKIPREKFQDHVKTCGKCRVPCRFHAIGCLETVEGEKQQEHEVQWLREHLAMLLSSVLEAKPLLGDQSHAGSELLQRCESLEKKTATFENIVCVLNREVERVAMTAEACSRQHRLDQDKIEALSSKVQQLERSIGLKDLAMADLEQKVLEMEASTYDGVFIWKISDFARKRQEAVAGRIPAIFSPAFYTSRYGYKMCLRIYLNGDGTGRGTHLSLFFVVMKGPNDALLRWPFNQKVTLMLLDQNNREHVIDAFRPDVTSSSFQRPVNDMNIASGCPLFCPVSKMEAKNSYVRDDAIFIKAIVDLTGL

B1: traf2_out_6_156_2439 (protein)
chain: SVDDILAETEAELTALIKALAAASPERKIFYINRIAGTVYRALQRLREGGASLEELRAFAERVRAHVEAALKEAGLDEETRNLVLSSLDAVFDVALASAA
B2: traf2_out_11_155_669 (protein)
chain: EEKQKLNNELVNELTKVSDELKEKVIKILKEAAEKHPEHKEEIEKVIESSKTLSGTSFARKAAQLFKELGLEEEAKKVEELLEEAQKKMNEIYKKYEKKL
B3: traf2_out_19_16_1992 (protein)
chain: SKEEAKELKEKMKKYLEEALKLAEETVARLDELSREELMDKLVEISELMRKAKELLEKYLELNKDDEEERKEVEEEFEEKEERIQRLMTIIVDRILELLK
B4: traf2_out_17_178_1725 (protein)
chain: SKEEILKKISELADKRFDVNHAAMDELRAIAEAEGVLTPELAARLDEVHRTSNLYALEEVADELIARTASADRVAALREKTSAELRELDKKIQEAVEKLE
B5: traf2_out_13_95_1086 (protein)
chain: SKEVNEKIMEIADEMMEQILATLDALAKQVAGDPELAAAVAEARRLAETRGVNEAIHKLRELAKANPEHAELLNAAIAEIEAIKKEASKKISELLKEEEE
B6: traf2_out_13_95_1113 (protein)
chain: SKELAEKIMEIADEALDKANALLDDLEAQIKASGKLKPEVEAALAAAKKSTISTAIHTLQELAKEYPEFKELFDATIAQLEEIRREAGRKVAELIKEEKE
B7: traf2_out_11_169_800 (protein)
chain: EEAEKNRKINDKALELNDEAKKKLLEHALKLAKEAGLDVEEVKKIYEKNKNRSLSYVASELIRYFKEKGKEEEAKAVLAKYEELKDEINKEMTKFIKELE
B8: traf2_out_1_27_1024 (protein)
chain: SDEELQKLIKETQKKIAEVNLEEAKKIVKEALKEAYKMGLSDAMMLARTLIASQLDVERAKAIAEAAIEAFKELGVPQEKIDELKKVAESILKLIEKQKK
B9: traf2_out_16_104_1374 (protein)
chain: AAALEAELEAARAELEAALEELGRAMNELYLKYQRASPEERVRLSDVLVDASAARRRALEVLEEVDREVAAGGDLRELIERLRAALAEVRAALARVRAAL
B10: traf2_out_6_3_2504 (protein)
chain: SDEEERKRNEEALELASEMSFETLKRAADTTLERLKKAVADPNASESDVLALASALNTILEIIRKNAEKNPEKKEEAEKYIEEREKELEKLLKEWEEKRK
B11: traf2_out_3_89_2306 (protein)
chain: SSAREKTIEEMRKRMEAYIKGFEKSAKYVMKEMLKDGMSLETIEGVLKAARTALLEELRETMKEKGLSEEEIEKLLKEAKEKLDKVVKEVVEEAKKEREK
B12: traf2_out_13_95_1210 (protein)
chain: EKEKTEKLREFTNEIADKLIDFVEKKAEEIEKATGNKEYKEDILSALRRYGVRAAVALIKKYAEEDPEYAEVYKKAAEEAEKKIREAGREAAKKDKEIEE
B13: traf2_out_17_162_1651 (protein)
chain: SALEEEKKRLEEELKRLREETKRLREKLKKIEEYSKEELSDLIVEASEVKRRALEALQEIDKLEPLLDPEEAERLKKELEEIIKEAQRIAQEFLDEYEKK
B14: traf2_out_6_3_2527 (protein)
chain: SHMSLLEDARTVLENMGITTAEQLLRLVKAEVNAVKKLVSRKDVNEADLAGARSVLNLTRAMVEVAAEELPSVTPEQVAEALALIDEAEKLVEEKEKELK
B15: traf2_out_17_178_1710 (protein)
chain: SKAEARATISAATDRMIDLAEAAAAELLAIAEAEGDLSPEELAELRRARRLGSARTTLALMRRAIPKLKSAERVQALLDRFEAEYAALAKEIAAALEKYE
B16: traf2_out_17_178_1657 (protein)
chain: NKEEARKKISEATDRLIDLTRATAARLLALLRADGIASPEELAALERARRLGSATTVRALLERAVPRSPRHAEVAALLDAFRAESGRLAKEIAAAYEEYE
B17: traf2_out_16_171_1428 (protein)
chain: LPPEEQARIRAEFDALARRLRERLELIRESLPAVMKELNISKEQALKSLEARAEELLAEAERFVAEHAPKVDEETRAYLEARLAELRAHAKAVIEEFRKE
B18: traf2_out_9_17_2617 (protein)
chain: SPARAALEEALLAAVEAVTAELIAEGWITPEQAQKIIDHARRLLAEGASPERVRVETIGTLASILLVDSKQSVQTANRAASRLDRALRAAEAAVAAAAAA
B19: traf2_out_16_104_1408 (protein)
chain: SAARDAEFDRIIEELEAIADELGRIANELYELMKTASPEDKEKLSDALVEASELRRRALEAAEEARRAREEGGDLAAARERLARLTAEAAAVKAKAEALK
B20: traf2_out_20_3_2122 (protein)
chain: EELEKELERELERAIRLLKEAAEISDPETAKRLEELIERLKKSRELSPEDRLVVVSEIRREVLRLAEEAARAGKTELAAILEAAADELNRAMQLLLEIAE
B21: traf2_out_13_95_1169 (protein)
chain: SEEKTKKEREIASEAFDKREAVMTDFAAKVRALIDDPEVAALMDEVVRRMNRFTLEHAAAEIKARHPEKAEEIEALAAEALAKLAAIDKETTAELNKIEE
B22: traf2_out_18_167_1879 (protein)
chain: SAELEEEYQRATDRLVELSEIRRWLLLALEALEESREAARAVLREALARLPDSEVLREALRVAEEESPEALRAFLEEKAEELQREANEAYKKLEALRKEM
B23: traf2_out_9_17_2608 (protein)
chain: TPEEEERRRDILEAAREVLERLVEEGYITEEEAEEILKKVEELLEEGKSPEEVLAEFIGMIASTLLTKSDLPLSEINKVVGRAYRELRERLAAAEARRAA
B24: traf2_out_20_3_2204 (protein)
chain: SELEEELEKRLDAAEKLLKEAQKLADPETAKTLDALIARLKASRELSYDDRLVTLSAIRAEVLALAQAAKAAGNAELAAVLEAAADELQKAMNLVYKIIE
B25: traf2_out_3_89_2283 (protein)
chain: SPELEKKIAELRKNFDTHIKGLERSTRRVAEEMLKEGASVETIKGLIDSSATALLESFEILLKEKGLPEEVRKELLAEIKKKLDATAKKLKKEVEEAAKK
B26: traf2_out_11_79_928 (protein)
chain: SEKRKKLKEELEKAKKLVEELIKKMKAGKITPEERKKMLEEILKLLQRAAQLALELGLSDVLVEISKAKRYVLLSENGDLEELEKALKYIEEALKLLEEE
B27: traf2_out_11_169_803 (protein)
chain: KEAEKNRKINDHALKLNDEAKEKLKEFALELAKKEGLDVEEIKKIFEENKNSSLSYVASKLIEYYLSLGNEDSAKKILEKYEELKDEINKKSSEFIKELE
B28: traf2_out_17_162_1573 (protein)
chain: EELERRLEELEKRLKELEKELKKFKEELPNLPKMSKEELTDKLVEVSEKKREARRLAEELRRLGEKLGEERVEKLVKRAEEIAEELNKIANEIYKEIEKK
B29: traf2_out_3_89_2294 (protein)
chain: SMEQEKKLEEMRKRMEAYLRGFERSARWVARQMVADGMSLDTIRGVLEAARTALLEVLRESAEEAGLSPEQIEELVEEARERLERIVEEVVEEARREREA

Target: T1, TRAF2, Q12933
Test: median log2 fold change of GCK-ALFA target abundance (FLAG IP / Myc IP barcode read proportion) (log2 ratio); each designed protein is fused to an ALFA-tag nanobody in HEK293 cells to bring the named protein to FLAG-tagged glucokinase (GCK); Myc marks an untargeted standard; higher = target protein stabilised (more abundant)
Conditions: target protein: 3xFLAG-MCP-GCK-ALFA reporter; HEK293 landing pad (RPLP)
Summary of the method: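 An ALFA-nanobody-fused binder library was recombined into HEK293 landing-pad cells and induced with 2 μg mL^−1 doxycycline. Cells were transfected with a plasmid expressing a FLAG-tagged target and a Myc-tagged standard. After 48 h, lysates underwent anti-FLAG and anti-Myc immunoprecipitation, and circular RNA barcodes were reverse transcribed, amplified and sequenced. Target abundance is the per-binder median log2 ratio of FLAG to Myc barcode read proportions. Barcodes needed ≥10^−7 proportion in both replicates, binders ≥3 barcodes per replicate, and a 10^−6 pseudocount was added; the two replicates were pooled.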

| Binder | median log2 fold change |
| --- | --- |
| B1 | 0.129 |
| B2 | 0.305 |
| B3 | -0.0614 |
| B4 | 0.348 |
| B5 | -0.0311 |
| B6 | 0.0328 |
| B7 | -0.104 |
| B8 | 0.141 |
| B9 | 0.173 |
| B10 | 0.197 |
| B11 | -0.595 |
| B12 | 0.281 |
| B13 | 0.169 |
| B14 | -0.418 |
| B15 | -0.136 |
| B16 | -0.13 |
| B17 | 0.292 |
| B18 | -0.658 |
| B19 | 0.363 |
| B20 | 0.142 |
| B21 | 0.276 |
| B22 | 0.141 |
| B23 | 0.27 |
| B24 | -0.756 |
| B25 | 0.324 |
| B26 | 0.348 |
| B27 | 0.164 |
| B28 | -0.118 |
| B29 | -0.433 |
